Experimental data from publication PMC8137956, “Orphan GPR116 mediates the insulin sensitizing effects of the hepatokine FNDC4 in adipose tissue” (Nature Communications, 2021).
No constants are given. Whether binding was seen depends on the method and setting. Some entries that bind do so weakly or less than the wild type. Tags and fused reporters may be left off the sequences shown.

The chains behind the UniProt entries cited, without tags or fusion partners. Residues count along the entry.
UniProt Q13349, residues 18-1161: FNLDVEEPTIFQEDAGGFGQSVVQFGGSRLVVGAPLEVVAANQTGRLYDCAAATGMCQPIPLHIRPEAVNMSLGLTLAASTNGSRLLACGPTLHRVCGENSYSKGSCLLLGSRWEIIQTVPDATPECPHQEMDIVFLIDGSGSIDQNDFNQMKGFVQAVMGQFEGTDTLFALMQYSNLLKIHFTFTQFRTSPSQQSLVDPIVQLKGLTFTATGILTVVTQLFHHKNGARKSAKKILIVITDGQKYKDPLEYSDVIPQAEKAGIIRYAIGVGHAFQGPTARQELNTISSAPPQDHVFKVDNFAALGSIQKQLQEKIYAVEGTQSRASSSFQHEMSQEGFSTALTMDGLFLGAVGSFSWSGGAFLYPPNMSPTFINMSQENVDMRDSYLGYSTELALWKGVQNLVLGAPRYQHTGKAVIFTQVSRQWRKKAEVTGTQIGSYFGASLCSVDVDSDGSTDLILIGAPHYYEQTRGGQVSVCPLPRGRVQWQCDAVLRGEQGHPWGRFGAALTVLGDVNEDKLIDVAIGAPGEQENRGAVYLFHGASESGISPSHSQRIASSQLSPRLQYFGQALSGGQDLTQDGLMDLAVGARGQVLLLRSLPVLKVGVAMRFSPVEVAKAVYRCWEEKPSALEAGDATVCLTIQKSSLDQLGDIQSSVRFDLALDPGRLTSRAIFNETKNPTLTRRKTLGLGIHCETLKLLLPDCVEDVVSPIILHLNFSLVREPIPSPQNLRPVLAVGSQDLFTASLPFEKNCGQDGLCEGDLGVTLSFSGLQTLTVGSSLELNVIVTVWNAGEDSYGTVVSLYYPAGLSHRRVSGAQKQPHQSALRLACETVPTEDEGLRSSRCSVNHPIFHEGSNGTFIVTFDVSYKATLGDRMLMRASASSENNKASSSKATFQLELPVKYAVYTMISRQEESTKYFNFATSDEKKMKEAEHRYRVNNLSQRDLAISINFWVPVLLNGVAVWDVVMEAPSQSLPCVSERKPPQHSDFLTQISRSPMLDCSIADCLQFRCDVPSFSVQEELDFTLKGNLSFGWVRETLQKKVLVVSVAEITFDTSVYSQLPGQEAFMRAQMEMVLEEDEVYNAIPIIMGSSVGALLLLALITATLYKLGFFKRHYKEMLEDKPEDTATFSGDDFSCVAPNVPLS

B1: 6xHis-Fc-sFNDC4 fusion protein (extracellular part of mouse FNDC4 fused with human IgG Fc) (Fc fusion)
chain: RPPSPVNVTVTHLRANSATVSWDVPEGNIVIGYSISQQRQNGPGQRVIREVNTTTRACALWGLAEDSDYTVQVRSIGLRGESPPGPRVHFRTLKGSDRLPSNSSSPGDITVEGLDGERPLQTGE
notes: extracellular part of mouse FNDC4 (sFNDC4), stated as aa 40-160; also called FcFNDC4; FcsF4; not shown: 6xHis, N-terminal, kept; Fc (human IgG), N-terminal, kept
B2: untagged sFNDC4 (non-Fc-fused FNDC4, aa40-160) (domain or fragment, UniProt Q3TR08 40-160)
chain: ADRPPSPVNVTVTHLRANSATVSWDVPEGNIVIGYSISQQRQNGPGQRVIREVNTTTRACALWGLAEDSDYTVQVRSIGLRGESPPGPRVHFRTLKGSDRLPSNSSSPGDITVEGLDGERP

What was measured:
[1] = target: T1, human GPR116 (G protein-coupled receptor 116), transiently overexpressed (human) (UniProt Q8IZF2); test: flow cytometry on cells; live HEK293A cells 48 h after transient transfection; FcsFNDC4 100 nM, 40 min at 4 °C in PBS with 3% FBS; detected with anti-human IgG-PE; fold change of MFI per 10,000 cells against mock transfection; only the binder purified
T1 sequence: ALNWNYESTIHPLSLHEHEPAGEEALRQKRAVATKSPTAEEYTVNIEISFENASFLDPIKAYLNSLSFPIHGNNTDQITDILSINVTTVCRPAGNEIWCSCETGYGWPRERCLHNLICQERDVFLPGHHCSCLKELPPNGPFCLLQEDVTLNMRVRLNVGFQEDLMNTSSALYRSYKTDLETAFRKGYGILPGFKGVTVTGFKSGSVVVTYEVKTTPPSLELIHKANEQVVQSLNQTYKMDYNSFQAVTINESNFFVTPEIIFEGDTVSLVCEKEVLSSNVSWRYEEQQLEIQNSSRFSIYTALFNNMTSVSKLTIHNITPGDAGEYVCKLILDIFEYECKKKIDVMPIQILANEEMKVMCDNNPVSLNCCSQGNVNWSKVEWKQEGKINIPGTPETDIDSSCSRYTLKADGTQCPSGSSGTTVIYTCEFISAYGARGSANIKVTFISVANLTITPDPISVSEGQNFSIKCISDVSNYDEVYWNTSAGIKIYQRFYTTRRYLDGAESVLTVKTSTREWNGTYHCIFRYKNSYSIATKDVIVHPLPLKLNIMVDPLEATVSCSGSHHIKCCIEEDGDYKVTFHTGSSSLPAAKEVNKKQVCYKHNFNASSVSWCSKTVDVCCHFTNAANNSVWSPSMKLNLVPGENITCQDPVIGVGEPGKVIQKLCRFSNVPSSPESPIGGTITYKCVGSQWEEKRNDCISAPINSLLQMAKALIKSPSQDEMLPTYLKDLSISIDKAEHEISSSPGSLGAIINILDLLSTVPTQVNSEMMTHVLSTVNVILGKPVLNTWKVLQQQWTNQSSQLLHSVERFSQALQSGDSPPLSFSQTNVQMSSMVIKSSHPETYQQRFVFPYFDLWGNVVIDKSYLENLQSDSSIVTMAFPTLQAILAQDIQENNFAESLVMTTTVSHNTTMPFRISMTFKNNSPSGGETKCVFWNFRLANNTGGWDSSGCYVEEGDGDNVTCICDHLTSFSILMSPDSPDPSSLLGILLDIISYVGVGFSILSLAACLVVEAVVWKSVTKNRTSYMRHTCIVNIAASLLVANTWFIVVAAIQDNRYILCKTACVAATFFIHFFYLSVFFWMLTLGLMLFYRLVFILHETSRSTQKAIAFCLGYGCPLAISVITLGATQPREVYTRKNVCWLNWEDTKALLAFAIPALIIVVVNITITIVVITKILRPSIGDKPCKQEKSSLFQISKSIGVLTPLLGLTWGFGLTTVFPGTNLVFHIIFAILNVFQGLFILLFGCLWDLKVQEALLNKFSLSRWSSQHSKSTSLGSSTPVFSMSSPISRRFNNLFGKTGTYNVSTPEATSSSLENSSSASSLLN

[2] = target: human ITGAD (integrin subunit alpha D), transiently overexpressed (human) (UniProt Q13349); test: as above
[3] = target: T2, human RXFP1 (relaxin/insulin-like family peptide receptor 1), transiently overexpressed (human) (UniProt Q9HBX9); test: as above
T2 sequence: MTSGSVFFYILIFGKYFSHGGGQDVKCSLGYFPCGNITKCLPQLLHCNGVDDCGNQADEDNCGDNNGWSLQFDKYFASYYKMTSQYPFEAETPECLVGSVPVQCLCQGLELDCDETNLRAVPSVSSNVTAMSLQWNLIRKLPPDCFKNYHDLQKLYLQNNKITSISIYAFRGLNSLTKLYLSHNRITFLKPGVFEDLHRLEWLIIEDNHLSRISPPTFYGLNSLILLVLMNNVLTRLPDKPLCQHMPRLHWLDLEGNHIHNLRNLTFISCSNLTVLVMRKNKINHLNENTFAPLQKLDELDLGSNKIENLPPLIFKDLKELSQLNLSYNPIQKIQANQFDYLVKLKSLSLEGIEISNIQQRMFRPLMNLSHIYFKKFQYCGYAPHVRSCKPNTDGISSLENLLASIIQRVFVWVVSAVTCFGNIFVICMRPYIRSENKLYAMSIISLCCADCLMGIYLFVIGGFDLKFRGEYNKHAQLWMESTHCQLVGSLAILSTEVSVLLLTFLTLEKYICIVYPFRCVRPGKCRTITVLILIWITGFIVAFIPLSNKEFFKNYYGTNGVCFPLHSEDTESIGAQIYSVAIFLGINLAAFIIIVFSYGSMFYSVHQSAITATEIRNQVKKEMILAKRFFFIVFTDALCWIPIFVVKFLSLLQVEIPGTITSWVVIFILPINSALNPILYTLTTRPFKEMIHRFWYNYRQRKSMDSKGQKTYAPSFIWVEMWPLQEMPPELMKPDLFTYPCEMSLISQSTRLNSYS

[4] = target: T3, human GPR116 with C-terminal fused FLAG, stably overexpressed (human) (UniProt Q8IZF2); test: flow cytometry on cells; HEK293T cells stably overexpressing human GPR116, 30 min with antiGPR116 (ab111169) or isotype control at different concentrations, antibody removed, then 100 nM FcsFNDC4 or Fc for 40 min on ice; anti-human IgG-PE; only the binder purified
T3 sequence: T1 sequence

[5] = target: T3, human GPR116 with C-terminal fused FLAG, stably overexpressed (human); test: flow cytometry on cells; saturation binding of FcsFNDC4 or Fc control on HEK293T cells with stable human GPR116-FLAG OE or mock cells; also in excess of sFNDC4 (1 mM) for non-specific binding; 4 °C, PBS with 3% FBS; anti-human IgG-PE; Kd from specific binding; only the binder purified

| binding [1] | binding [2] | binding [3] | binding [4] | binding [5] | Binder |
| --- | --- | --- | --- | --- | --- |
| binds | no binding (tested: 100 nM) | no binding (tested: 100 nM) | binds | – | B1 |
| – | – | – | – | binds | B2 |
